{
  "source": "the antibiotic and cytotoxicity screens of Wong et al. (2023)",
  "note": "The list shows a part of the results.",
  "data": [
    {"system": "HepG2", "test": "cytotoxicity call (relative viability < 0.9)", "conditions": "10 µM", "values": [
      {"smiles": "COc1ccc(NC(=O)Nc2ccc3c(c2)C(=O)N([C@@H](C)CO)C[C@@H](C)[C@@H](CN(C)C(=O)Nc2ccc4c(c2)OCO4)OCCCC[C@@H](C)O3)cc1", "cytotoxicity call": "inactive"},
      {"smiles": "C[C@@H]1CN([C@H](C)CO)C(=O)c2cccc(NC(=O)NC3CCCCC3)c2O[C@@H]1CN(C)Cc1ccc(Oc2ccccc2)cc1", "cytotoxicity call": "inactive"},
      {"smiles": "COCC(=O)N1C[C@]2(C1)CN([C@H](CO)c1c2c2ccc(cc2n1C)OC)C(=O)CN1CCOCC1", "cytotoxicity call": "inactive"},
      {"smiles": "Cc1nnc(Nc2cccc([C@H]3CCCN(C(=O)CN)C3)n2)s1", "cytotoxicity call": "inactive"},
      {"smiles": "Cn1c(=O)c2c(nc3n2CC=NN3)n(C)c1=O", "cytotoxicity call": "inactive"},
      {"smiles": "C[C@H](CO)N1C[C@H](C)[C@H](CN(C)Cc2ccccc2)Oc2ccc(NC(=O)CCN3CCOCC3)cc2C1=O", "cytotoxicity call": "inactive"},
      {"smiles": "C=CCN1C[C@H](C(=O)O)CC1=O", "cytotoxicity call": "inactive"},
      {"smiles": "C[C@H](CO)N1C[C@H](C)[C@@H](CN(C)Cc2ccc(C(=O)Nc3ccccc3N)cc2)Oc2c(NS(C)(=O)=O)cccc2C1=O", "cytotoxicity call": "inactive"},
      {"smiles": "C[C@@H]1CN([C@@H](C)CO)C(=O)c2cc(NC(=O)CCN3CCOCC3)ccc2O[C@@H]1CN(C)Cc1ccc2c(c1)OCO2", "cytotoxicity call": "inactive"},
      {"smiles": "COc1ccc2c3c([nH]c2c1)[C@H](CO)N(C[C@]13CCN(CC1)C(=O)c1ccccc1F)C(=O)Nc1ccccc1F", "cytotoxicity call": "inactive"},
      {"smiles": "Cc1ccc(S(=O)(=O)Nc2ccc3c(c2)C(=O)N([C@@H](C)CO)C[C@@H](C)[C@H](CN(C)S(C)(=O)=O)O3)cc1", "cytotoxicity call": "inactive"},
      {"smiles": "C[C@@H]1CN([C@@H](C)CO)S(=O)(=O)c2ccc(-c3cncnc3)cc2O[C@@H]1CN(C)C(=O)c1ccc2c(c1)OCO2", "cytotoxicity call": "inactive"},
      {"smiles": "C[C@@H]1CCCCO[C@@H](CN(C)C(=O)C2CCCCC2)[C@@H](C)CN([C@H](C)CO)C(=O)c2cc(NS(=O)(=O)c3cccs3)ccc2O1", "cytotoxicity call": "active"},
      {"smiles": "C[C@H]1CN([C@@H](C)CO)C(=O)c2cc(NS(=O)(=O)c3ccccc3)ccc2O[C@@H]1CN(C)Cc1ccc(Oc2ccccc2)cc1", "cytotoxicity call": "inactive"},
      {"smiles": "C[C@@H]1CN([C@@H](C)CO)C(=O)c2c(c3ccccc3n2C)-c2ccccc2CO[C@H]1CN(C)Cc1ccc(F)cc1", "cytotoxicity call": "inactive"},
      {"smiles": "Nc1cc(Cl)ncn1", "cytotoxicity call": "inactive"},
      {"smiles": "CCS(=O)(=O)Nc1ccc2c(c1)C(=O)N(C)[C@H]1CC[C@@H](CC(=O)NCCCN3CCOCC3)O[C@H]1CO2", "cytotoxicity call": "inactive"}
    ]}
  ]
}
